Measurements from the supplement of paper PMC11417369.
± gives the standard deviation of the averaged measurements. The list shows a part of the results.

tested on: PfAP2-I AP2 domain 3 (GST-tagged); experiment: gcPBM binding intensity (ln(normalized median fluorescence intensity)); higher = stronger DNA binding
Method in brief: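 GST-tagged P. falciparum DNA-binding domains, expressed in E. coli (about 25 μg on average), were applied for 1 h to an Agilent 4 × 180k array of primer-extended double-stranded 36-bp intergenic genomic probes plus negative controls. The binding buffer was 1× PBS with 1% milk, 0.2 mg/ml BSA, 0.5% salmon testes DNA and 0.03% Triton X-100. Bound protein was detected with Alexa488 anti-GST antibody and scanned at 488 nm. Binding intensity is the highest Masliner-normalised natural-log median intensity across replicate spots of either probe orientation.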

Sequence | gcPBM binding intensity (ln)
ATAGTTTATACAAATAGTACGCACAAAAAAAAATAA [XGTACX_site6727] | 8.34 ± 0.28
TATATATAAACAAAATGTACATATTTGAGATACCCT [XGTACX_site2195] | 7.93 ± 0.47
ACACATACATACATATGTACATATATACATATATAC [XGTACX_site5559] | 8.45 ± 0.83
CAATACTATTATTATAGTACGTATAAAATTATATAT [XGTACX_site4950] | 7.71 ± 0.46
TACAAAAAAGAAGATATTCAAACAAAAACAAAAAAA [CACACA_negctrl_site1126] | 7.5 ± 0.56
AGTAAACGATGATGTTGTACAAAAAGGATAATTTAA [XGTACX_site6698] | 8.07 ± 0.66
TTTTTATTTTTTATGTAATTTAAATAATTATTCAAA [CACACA_negctrl_site1549] | 7.5 ± 0.54
GTATTCTTCTCTCCGTGTACATATATATGTATATAT [XGTACX_site803] | 8.47 ± 0.6
TATATATATATGCTACGTACATATATATTATATATA [XGTACX_site7894] | 9.1 ± 0.49
TATCATAATAGACACAGTACATATATGTCTTAAATT [XGTACX_site8775] | 7.63 ± 0.54
AATATCTTAGTGGATACACACATATAAATGTGTATT [CACACA_site6367] | 7.56 ± 0.54
CTTTCAATTTTTTTCTGTACCAATAAAAAATATAAA [XGTACX_site2120] | 7.88 ± 0.5
ATAATGTTTTATAATACACACATTATATATATAAAT [CACACA_site6101] | 8.04 ± 0.42
ATATTTATGTAAAAAAGTACATACAATTATATATGT [XGTACX_site3750] | 7.74 ± 0.4
GATTACAAAAAAAATACACACAAAAAAAAAAAGGAA [CACACA_site2096] | 7.59 ± 0.57
ACATGAATTTATATGTGTACTAACTATATTCTTAAA [XGTACX_site5966] | 7.8 ± 0.45
TATATACAATATAGGTGTACATTTTTTTATCTATTT [XGTACX_site8431] | 7.83 ± 0.53
TCTGGCATATAATATTGTACACATATATATATATAT [XGTACX_site8182] | 9.15 ± 0.45
TATCTGTATTTATTCACACATATAAAATATAATTAA [CACACA_site5560] | 7.67 ± 0.38
ATGAATAAATAGGTCACACACAAATATTTATAAATA [CACACA_site7186] | 7.8 ± 0.62
GATATGAATATAGGTTGTACTATATATAAAGTATGT [XGTACX_site1877] | 7.93 ± 0.59
AACGGGGGTAGTTTTATGCACACGTTTATTAATGCT [CACACA_site3173] | 10.16 ± 0.028
TATATGTTAATTTTTTTTTTTTTTTTTTTTTTTATA [CACACA_negctrl_site62] | 7.17 ± 0.28

Sequence | gcPBM binding intensity (ln)
AAAGTACAAGTATAATCACACGTGTCTATTATATAC [CACACA_site4507] | 7.71 ± 0.57
AAAAAAAAAAAAAAAACACACATTTGAAAGAAAGAA [CACACA_site3339] | 8.67 ± 0.41
TACACCCATGGACACACACACACGCATAAAAAAAAA [CACACA_site4933] | 8.32 ± 0.4
ATTTTTATTTTCTTTACACACCACATAATTTTTTTT [CACACA_site6092] | 8.22 ± 0.47
CATAAGAGGAACTTTTGTACTTATATGTATATAGTA [XGTACX_site5836] | 7.5 ± 0.42
TATATCGTTATATAAACACACAATATGTTTTTTATA [CACACA_site7730] | 7.53 ± 0.46
CTTTTATGAAACAGTGCACACATAAAAATATATACA [CACACA_site8981] | 10.7 ± 0.33
GCCACACTTTTCTGCACACATAAAAAATATATAAAT [CACACA_site578] | 9.62 ± 0.19
ATTTATTGACTATTTACACACATATTTATTAGAATA [CACACA_site6863] | 7.84 ± 0.61
GGGAGGATAGTTCACAGTACCCAGTAACTCTACGGA [XGTACX_site2558] | 7.73 ± 0.44
ATGATACATAAAGAATATAAAACATGAAATATAATA [CACACA_negctrl_site1461] | 7.64 ± 0.49
ATATATAATATATATGCATGTGACATTAATAATATA [TGCATGCA_site880] | 7.63 ± 0.49
ATATGAAAGGTGTACACACGCACACCCAAAAAAATA [CACACA_site2911] | 8.25 ± 0.3
TAATTTAAAAATATAAATGTTTCACTTATATATTTT [TGCATGCA_negctrl_site399] | 7.15 ± 0.49
AACTGAGAAACCGAAGTGCAATATGTATATATACAT | 10.5 ± 0.2
TTTTTTACGCATAACTTAATATGAGAATCCCTTTCT [GTGCAC_negctrl_site522] | 7.71 ± 0.65
CCACACTTAAAATACACACACACCAAAAAAAAAAAA [CACACA_site2709] | 8.21 ± 0.79
AACACTTTAATTTATGCACACATATGGAACAACAGC [CACACA_site8241] | 10 ± 0.22
AGATATATATTTTATTGTACACATTAAAGTATAAAA [XGTACX_site7194] | 7.91 ± 0.24
AACATTTTTAGATTATATTATTAAATAAGTAACTGC [XGTACX_negctrl_site326] | 7.68 ± 0.44
TATGTATTTATATATACACACTTCTGTGATACGAAA [CACACA_site5128] | 7.49 ± 0.59
AAGTTTTTTATTTTTTGTACATAAAAAATAATAATT [XGTACX_site1755] | 7.76 ± 0.42
TTTTTGTTTTTTTTTTGTACATATATATAAAAAATA [XGTACX_site1214] | 7.96 ± 0.37

Sequence | gcPBM binding intensity (ln)
TTTTTTTTAATATTTTACATTGTCTGTTAACAAATA [CACACA_negctrl_site599] | 7.7 ± 0.66
TTTATATTTATCCAAAGTACTTTTTAAAAACATACC [XGTACX_site4518] | 7.91 ± 0.35
ATGAACATTTATAAATGTACTCACATATATATATTT [XGTACX_site6692] | 7.85 ± 0.47
AAAATAATATTTAATACACACATAATTATAATATAA [CACACA_site782] | 7.72 ± 0.47
ATTTTTAATTGAATCACACATTTCCTTTCTTTTGTG [CACACA_site4438] | 7.67 ± 0.79
ATTAAAAATAAGAAGAGTACATATAATATATATACA [XGTACX_site3092] | 7.51 ± 0.28
ACCTTTTGGATTATATGTACATATATATATATATAT [XGTACX_site2687] | 9.54 ± 0.18
TTAAAAAGAAAGTTCACACACATATATATGACGGAA [CACACA_site2602] | 7.92 ± 0.59
AGAATACATCTATGAACACACAGAGTTTTAAAAAAT [CACACA_site5514] | 7.53 ± 0.64
ATATTATTTTAAAGTACACACATATATTGATATATA [CACACA_site7153] | 8.12 ± 0.27
TTTTTCATTTAACAGAAGGGAGATAAAAAAAAAAAA [TGCATGCA_negctrl_site261] | 8.15 ± 0.73
GTATGTATGTATGTATGTACGTATGTATGTATATAT [XGTACX_site3369] | 9.04 ± 0.49
AATAATTATAAAAAATGTACAAAAAAAAAAAAAAAA [XGTACX_site3681] | 7.88 ± 0.54
GCAAATCATGCTATGGTGCATATGTAAGATGAGCAT | 10.4 ± 0.28
TTGTGATTATTATATTGTACAATAAGTATTAAAGAA [XGTACX_site2753] | 8.2 ± 0.45
ATATATAATACTACAGTGCAATATATTATATTTGTT | 10.7 ± 0.61
TTCCTCTTAAAATATACACACTGATTTAAGAAAAAA [CACACA_site5770] | 7.75 ± 0.4
ATACTAAATATAAATTGTACTTTATTTATATTGAGA [XGTACX_site8699] | 7.68 ± 0.26
TATATATATATATATATACACACTATATAATTCAAA [CACACA_site1023] | 9.31 ± 0.39
TTTTTTTTTTTTTAGAGTACACACTTTTTTACATTT [XGTACX_site8159] | 8.15 ± 0.49
TTAACATAGATATATACACACCAATGATGGCATTTA [CACACA_site6840] | 7.61 ± 0.47
AAATAAAAGTTCACCTGTACACACATATATATATGT [XGTACX_site3513] | 8.03 ± 0.5
CATAAAATATAAAACACACACACATATATTTATATA [CACACA_site6247] | 7.61 ± 0.43

Sequence | gcPBM binding intensity (ln)
ACCTTATTTAGTTATAGTACACAAAGTATTAAACAT [XGTACX_site8418] | 8.46 ± 0.46
TTTTTTTTTTTCTTCACACACAGTACTACTATTTAT [CACACA_site2409] | 8.15 ± 0.65
GCGAATAATATGGACATACACACATATACATACATA [CACACA_site2115] | 8.13 ± 0.53
TATATATATTTTTGTGTGCACTATAATATGAAAATA | 11.4 ± 0.45
TCATTTATTGAGGAATGTACACGTAAAATTTAATAA [XGTACX_site4086] | 8.28 ± 0.4
ATTTTTTTTTTTTTTTTCTTTTTTCTTCTTTTTTTT [CACACA_negctrl_site1223] | 7.53 ± 0.63
ATATATATTATAAAATGTACAAATGTTATATAAAAT [XGTACX_site4750] | 7.92 ± 0.45
TTTTTTTTTTTTTTATGTACATATATATATTTTATT [XGTACX_site6915] | 8.06 ± 0.36
TAAAGGAAATAAAAAACATGCAAATATGAAATATAT [TGCATGCA_site745] | 7.61 ± 1.1
AATTATAAATTGGACACACACATAAAAAATATGTAC [CACACA_site221] | 7.7 ± 0.64
TAAAAAAAAACATGTGCACACGTTTTATCTACATAA [CACACA_site2336] | 9.58 ± 0.13
ATACATAATAACTCCTGTACTTAAAAATGTATATAT [XGTACX_site1071] | 7.82 ± 0.51
TTACATATTATACGAAGTACGTACAAATACTTATAT [XGTACX_site8598] | 7.96 ± 0.18
TTGCATTGTCCATGCGCACACACTACTAGAATAATA [CACACA_site3678] | 8.4 ± 0.4
TTTTTTTTTTTTTTTTTTAAACACCTCAAAAAAAAA [CACACA_negctrl_site807] | 8.05 ± 0.73
TATATAATTATTTATTGTACACTCAAATCGATAAGG [XGTACX_site3216] | 8.16 ± 0.099
ATATAAATATATTTTACACACAATGGAGAAAAAAAT [CACACA_site6450] | 8.03 ± 0.68
GGATTAATATATTTACCACACACCCATTTCGATTTT [CACACA_site9200] | 7.99 ± 0.67
ATCTTGAAGATTATTTGTACACAAAAGTTAAAATAT [XGTACX_site242] | 7.79 ± 0.47
TATTTATAAATATAAACACACAACATTCTATGCATA [CACACA_site3243] | 7.68 ± 0.37
